# Test results published in paper PMC7819943, “Rice protein-binding microarrays: a tool to detect cis-acting elements near promoter regions in rice”.
# This is one part of the list.
# Target: T1, OsWOX13 (Oryza sativa, UniProt Q5QMM3 1-267)
# T1 sequence: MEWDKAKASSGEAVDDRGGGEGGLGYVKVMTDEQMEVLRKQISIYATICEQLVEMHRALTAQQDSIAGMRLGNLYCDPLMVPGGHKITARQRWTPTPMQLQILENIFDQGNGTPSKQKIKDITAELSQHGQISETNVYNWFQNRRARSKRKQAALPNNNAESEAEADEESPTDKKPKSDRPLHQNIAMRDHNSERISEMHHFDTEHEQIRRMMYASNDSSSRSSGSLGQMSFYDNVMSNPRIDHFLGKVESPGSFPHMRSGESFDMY
# Test: protein-binding microarray (RPBM); PBS, 2% BSA, 51.3 ng/ul salmon testes DNA, 50 uM zinc acetate, 200 nM TF, 25 C, 1 h; high values mean tight binding
# Conditions: protein: recombinant; tags: N-terminal polyhistidine and DsRed monomer fusion (pET32a); label: CyDye5-dUTP incorporated in the synthesized complementary strand; 3' TTTTT single-stranded linker to array surface; dsDNA, one strand shown
# How it was run: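 An Axon 4000B scanner gave the binding signal as per-feature fluorescence intensity in arbitrary units. This followed washing of a custom Agilent array that had been incubated for 1 h at 25 °C with 200 nM protein in PBS, 2% BSA, salmon testes DNA and 50 µM zinc acetate. The proteins were transcription factors fused at the N-terminus to polyhistidine and DsRed, expressed in E. coli BL21-CodonPlus and purified on Ni–NTA.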
row,Sequence,binding signal
1,GATGATTTGGAGGTAGGATTTGGCTATACTATTAAACTTGCGGAGTCACCTAGTGCAG,12800 fluorescence intensity (a.u.)
2,AAATTAACTATAGATGATTAGGAGCCAGTAGTTGTCTATACGGAGTCACCTAGTGCAG,31600 fluorescence intensity (a.u.)
3,TTGTGATTGGCAGATGCCATAGTCAGGGCATTAGCTCTTTCGGAGTCACCTAGTGCAG,46400 fluorescence intensity (a.u.)
4,GAGATTTTGACTATTAATTTTCATCGTCTTTGGTTTTAAGCGGAGTCACCTAGTGCAG,4120 fluorescence intensity (a.u.)
5,TAGATAGATTTAGTTATACATAATAACTATAACTATTTATCGGAGTCACCTAGTGCAG,6300 fluorescence intensity (a.u.)
6,TAATGCTAATTGTTCGTACAGTAATACCTGGATGTTTTCCCGGAGTCACCTAGTGCAG,10200 fluorescence intensity (a.u.)
7,GCAAACAATCAGGCTCCATTCCTTCACCGCGAAGCTGCTCCGGAGTCACCTAGTGCAG,3240 fluorescence intensity (a.u.)
8,TTCGAACCTTGATTATACAGTACAGTAGGTACACTACAACCGGAGTCACCTAGTGCAG,3540 fluorescence intensity (a.u.)
9,CAGTTATGTGATTGGACTATAAATACGATATATGTTGTGTCGGAGTCACCTAGTGCAG,28700 fluorescence intensity (a.u.)
10,TCTAAGTAACAGATGTAACTGGAAAGAAAATGATGAATGGCGGAGTCACCTAGTGCAG,6390 fluorescence intensity (a.u.)
11,CAGTTAATTGAGTTGATGGCCACTCCTCTGCTGCTCGTCGCGGAGTCACCTAGTGCAG,60700 fluorescence intensity (a.u.)
12,AAAATTTCATCATCAATTTATTCAACAATGGGAGGGACCCCGGAGTCACCTAGTGCAG,13500 fluorescence intensity (a.u.)
13,AATTTGATTAGGTGAGTACACCCAATTTTCCGGAGGACGACGGAGTCACCTAGTGCAG,19800 fluorescence intensity (a.u.)
14,CCTTGACAGTGCACACGCCAAAACCACCGCTAACTCCCACCGGAGTCACCTAGTGCAG,5060 fluorescence intensity (a.u.)
15,TTTAAATGGATGATAAGTAGAATTATTTATCTTTGGTCTACGGAGTCACCTAGTGCAG,22800 fluorescence intensity (a.u.)
16,CAACTTTAATTTAGGTGACTTTTCCATTTGAAATCATTTACGGAGTCACCTAGTGCAG,5300 fluorescence intensity (a.u.)
17,GCAAAATTGATCCATTTTCCTCCTGGATTAGTCAATTAGGCGGAGTCACCTAGTGCAG,26600 fluorescence intensity (a.u.)
18,TTAATAAAACTAATTTGGCGTTATTGACCTTGCTAACTTTCGGAGTCACCTAGTGCAG,3240 fluorescence intensity (a.u.)
19,CCTGAGCATGCATGATTGCTTATAGAAACATTTTGTTTTACGGAGTCACCTAGTGCAG,16300 fluorescence intensity (a.u.)
20,TACGGTAATTTAGTGAAACCAAAATGCAGGACGACATTACCGGAGTCACCTAGTGCAG,4960 fluorescence intensity (a.u.)
21,TCAGTAAGTCAACCGGACATGATTGCATTTTCATCGCGGTCGGAGTCACCTAGTGCAG,8440 fluorescence intensity (a.u.)

row,Sequence,binding signal
1,AAAATTTATATGCCCAATTTAAATTTGAATTCTGATTCGGCGGAGTCACCTAGTGCAG,5770 fluorescence intensity (a.u.)
2,CTCCAAAATATCCTCCACATAATTGACAGTTCTAGCTACTCGGAGTCACCTAGTGCAG,3770 fluorescence intensity (a.u.)
3,GAGGATGATCTTGATAATTAGTTTCTAACATCGAAATTGACGGAGTCACCTAGTGCAG,10400 fluorescence intensity (a.u.)
4,AAAATTATCAAATTCTTTCTTAATAATCTGCAATTCGTGTCGGAGTCACCTAGTGCAG,4270 fluorescence intensity (a.u.)
5,GAATCAAATTAAATTTTAATCGGCTAAAGCCATACTTCATCGGAGTCACCTAGTGCAG,14200 fluorescence intensity (a.u.)
6,GGACTCGCAGAAAAGAATCAATCAATCACTAGTCTACCTTCGGAGTCACCTAGTGCAG,16300 fluorescence intensity (a.u.)
7,TGATTAACTAGAAAATAATTATACTTATCAAAAGATTATCCGGAGTCACCTAGTGCAG,4100 fluorescence intensity (a.u.)
8,AACTTGTTTTAAATTATTGGTTAAGCTAATTTATTAAAATCGGAGTCACCTAGTGCAG,6500 fluorescence intensity (a.u.)
9,ATTAATTGAGTTTTATTTTATTGTAAATTTGATTTAATAGCGGAGTCACCTAGTGCAG,37200 fluorescence intensity (a.u.)
10,AGTTAAATTTTAATTTGTATGTGTGTGAAGTGATATATATCGGAGTCACCTAGTGCAG,15400 fluorescence intensity (a.u.)
11,TTTGATTGCCCTTCTATATCGACTTTCGATCGCCTTTTCTCGGAGTCACCTAGTGCAG,26000 fluorescence intensity (a.u.)
12,TCTGTCTATCTATCTAATCTTCACTTGGAAGCAAATTTTGCGGAGTCACCTAGTGCAG,3370 fluorescence intensity (a.u.)
13,ACATATATAAATTAAGTTGTGGGTGACACTGACATCCATCCGGAGTCACCTAGTGCAG,3880 fluorescence intensity (a.u.)
14,ATGATTCTTGAATTGTTCTCATCTCATTTGATTTCGTCCACGGAGTCACCTAGTGCAG,5550 fluorescence intensity (a.u.)
15,TACTCCCCGATTGAGGTTGATAGAAGATTGTCAACGATATCGGAGTCACCTAGTGCAG,9550 fluorescence intensity (a.u.)
16,GAATTAATGATTGAGAGGAAGCTGAAGCTGAAGTTGTTGCCGGAGTCACCTAGTGCAG,39900 fluorescence intensity (a.u.)
17,ATATATATATATATATATATATATATATAGATTCATTAACCGGAGTCACCTAGTGCAG,27000 fluorescence intensity (a.u.)
18,TCTTAATATATTAATGCTGTGTTCAGGAGAAGAGGTTCATCGGAGTCACCTAGTGCAG,3470 fluorescence intensity (a.u.)
19,GCGTAATTGCTCCATGATTTGACAATGTGGTGCTACATTACGGAGTCACCTAGTGCAG,47500 fluorescence intensity (a.u.)
20,GATCTGAATGAAATAATTTGACCATGGAAAGGAAACCCTGCGGAGTCACCTAGTGCAG,8040 fluorescence intensity (a.u.)
21,CGCGAGCTAATCATCACTCCCACGTCTCAGCTCATTCGTCCGGAGTCACCTAGTGCAG,3840 fluorescence intensity (a.u.)
